The list shows a part of the results.
tested on: S. aureus RN4220; assay: growth inhibition call (relative growth <= 0.2); details: 50 µM

Growth inhibition call, inactive:
C[C@H]1CN([C@@H](C)CO)C(=O)Cc2cc(NC(=O)Cc3cn(C)c4ccccc34)ccc2O[C@@H]1CN(C)S(C)(=O)=O, CC(NCCc1ccc(O)cc1)C(O)c1ccc(O)cc1.Cl (stereo unspecified), COc1ccc(S(=O)(=O)Nc2ccc3c(c2)CC(=O)N([C@H](C)CO)C[C@H](C)[C@@H](CN(C)Cc2ccc(-c4ccccc4)cc2)O3)cc1, O=C(C[C@H]1C[C@H]2c3cc(NS(=O)(=O)c4ccc(F)cc4)ccc3O[C@H]2[C@H](CO)O1)NCc1ccc(Oc2ccccc2)cc1, CCN(CC)CCNC(=O)c1cc(Br)c(N)cc1OC, C/C=C/c1ccc2c(c1)O[C@@H](CN(C)S(=O)(=O)c1ccccc1OC)[C@H](C)CN([C@@H](C)CO)S2(=O)=O, Cc1ccc(S(=O)(=O)Nc2ccc3c(c2)C(=O)N([C@@H](C)CO)C[C@H](C)[C@H](CN(C)C(=O)Nc2cccc4ccccc24)O3)cc1, COc1ccc(S(=O)(=O)N(C)C[C@@H]2OCCCC[C@H](C)Oc3ccc(NC(=O)Nc4ccc(C(F)(F)F)cc4)cc3C(=O)N([C@@H](C)CO)C[C@H]2C)cc1, CN1CCN(C(=O)C[C@H]2CC[C@@H]3[C@@H](COc4ccc(NC(=O)c5cccs5)cc4C(=O)N3C)O2)CC1, COc1ccc(NC(=O)Nc2ccc3c(c2)C(=O)N([C@H](C)CO)C[C@@H](C)[C@@H](CN(C)S(=O)(=O)c2cccs2)OCCCC[C@H](C)O3)cc1, C[C@H]1CN([C@@H](C)CO)C(=O)c2c(c3ccccc3n2C)-c2ccccc2CO[C@@H]1CN(C)Cc1cccc(C(=O)O)c1

Source: the antibiotic and cytotoxicity screens of Wong et al. (2023)
